This is an account of results in the BET-seq Pho4 binding data (Le et al. 2018).

The other results are listed elsewhere or left out. These are noisy estimates, calculated here from bound and input reads.

In this assay the target is T1, Pho4 (S. cerevisiae) (UniProt P07270).
T1 sequence: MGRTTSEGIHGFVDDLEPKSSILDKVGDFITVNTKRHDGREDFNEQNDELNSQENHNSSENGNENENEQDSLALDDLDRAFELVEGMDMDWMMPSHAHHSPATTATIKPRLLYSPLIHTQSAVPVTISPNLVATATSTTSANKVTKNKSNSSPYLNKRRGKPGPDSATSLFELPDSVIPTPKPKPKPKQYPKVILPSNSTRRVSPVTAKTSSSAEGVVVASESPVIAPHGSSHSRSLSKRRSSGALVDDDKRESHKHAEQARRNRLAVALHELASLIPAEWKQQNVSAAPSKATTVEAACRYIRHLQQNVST
The experiment in a line: relative binding free energy (BET-seq); higher = weaker binding. As to conditions: reference: library average.
For the sequence AGCGGCACGTGTTTTG, the “relative binding free energy” value is -0.03 kcal/mol. Regarding CGTGGCACGTGGATGC, the “relative binding free energy” value is -0.1 kcal/mol.

Turning to AGTTTCACGTGACGAT, the “relative binding free energy” value was 0.27 kcal/mol. Under AGCGACACGTGGTGGT stands 0 kcal/mol; under TGGAGCACGTGCGGGT, -0.08 kcal/mol. The same measure for TATGACACGTGCGGGG: -0.14 kcal/mol. The same measure for TAATACACGTGTCGTT: -0.03 kcal/mol; for ATCTTCACGTGGGTGG: 0.21 kcal/mol. Consider GTGGGCACGTGGGATA, for which the “relative binding free energy” value is -0.16 kcal/mol. The same measure for TAGTGCACGTGCGTAG: -0.09 kcal/mol; for TGTTACACGTGCGGGC: 0.06 kcal/mol.

Consider AAGGGCACGTGGACTT, for which the “relative binding free energy” value is -0.06 kcal/mol.

As to CCTGTCACGTGAGTGG, the “relative binding free energy” value was 0.09 kcal/mol. As for TATTGCACGTGGAGAT, the “relative binding free energy” value worked out at 0.06 kcal/mol.

GAGCTCACGTGTGTTG: the “relative binding free energy” value came to 0.15 kcal/mol.

As for TGATGCACGTGAGGTT, the “relative binding free energy” value was found to be 0.27 kcal/mol.

TTTTGCACGTGGTATG: the “relative binding free energy” value is -0.06 kcal/mol. Under TTTGACACGTGTATAG stands -0.05 kcal/mol; under TGGTTCACGTGAGCGA, 0.35 kcal/mol. The same measure for GGTTACACGTGGGCGC: -0.05 kcal/mol. Regarding AGTGGCACGTGCTTAA, the “relative binding free energy” value is -0.2 kcal/mol.

Take CGTGTCACGTGTTGTT: the “relative binding free energy” value was found to be 0.04 kcal/mol.

With TGGAACACGTGGTGGT, the “relative binding free energy” value was -0.02 kcal/mol. Under CAGGTCACGTGGTTGT stands -0.01 kcal/mol; under CGCGACACGTGGGTGG, -0.05 kcal/mol.

Regarding TCGTGCACGTGAGTGC, the “relative binding free energy” value was 0.07 kcal/mol.

On to TGAATCACGTGGTGAG, for which the “relative binding free energy” value is -0.04 kcal/mol. On to TGTATCACGTGATTGC, for which the “relative binding free energy” value came to 0.22 kcal/mol.

For AGGGCCACGTGGGTTT, the “relative binding free energy” value is -0.24 kcal/mol. Under TGGCTCACGTGAGTAG stands 0.34 kcal/mol. The same measure for TGCAGCACGTGGTAAG: -0.19 kcal/mol; for GGTCTCACGTGCTTGG: 0.24 kcal/mol. In the case of GGTTTCACGTGAGTCG, the “relative binding free energy” value was 0.38 kcal/mol. Under CTTAGCACGTGGCGTT stands -0.15 kcal/mol; under TGCGGCACGTGCCGGG, -0.12 kcal/mol; under GTGGTCACGTGGACTA, 0.21 kcal/mol.

As to TGTTACACGTGAACGT, the “relative binding free energy” value came out at 0.22 kcal/mol. Under ATTTTCACGTGGATGA stands 0.14 kcal/mol; under TTGATCACGTGAATGC, 0.52 kcal/mol. Regarding AAATGCACGTGATTTT, the “relative binding free energy” value is 0.16 kcal/mol. The same measure for TTTGACACGTGGGCCT: -0.05 kcal/mol; for TCGGGCACGTGTAGTT: 0 kcal/mol.

As for AGGTTCACGTGTGTAT, the “relative binding free energy” value worked out at 0.19 kcal/mol. The same measure for TTTGGCACGTGCAATT: -0.01 kcal/mol; for ACTGGCACGTGTTGTC: 0.04 kcal/mol. Under TTTGACACGTGGTCTC stands -0.07 kcal/mol. Under GGTGACACGTGTAGGA stands 0.05 kcal/mol; under GTGGTCACGTGAACGT, 0.2 kcal/mol.

Turning to AGGGACACGTGAAAGT, the “relative binding free energy” value worked out at 0.21 kcal/mol.

Regarding GGTCTCACGTGTGTTC, the “relative binding free energy” value worked out at 0.25 kcal/mol. Under TTAGTCACGTGAGCGT stands 0.27 kcal/mol. The same measure for TAGGGCACGTGCAGGC: -0.11 kcal/mol; for GTTCCCACGTGGTGGT: -0.13 kcal/mol. Take AGATGCACGTGTTGCA: the “relative binding free energy” value was determined as 0.06 kcal/mol. Under TTGCACACGTGTTGTT stands 0.08 kcal/mol; under TGTTGCACGTGGAGTC, 0.04 kcal/mol. The same measure for TGACGCACGTGTCTGG: -0.07 kcal/mol; for CGAGTCACGTGTGAGG: 0.04 kcal/mol. The same measure for GGAGACACGTGGTGTG: -0.05 kcal/mol; for AGCAGCACGTGGTGGC: -0.16 kcal/mol. For GCGTTCACGTGTTGCT, the “relative binding free energy” value came to 0.28 kcal/mol. For ATTGGCACGTGGTTAC, the “relative binding free energy” value was -0.24 kcal/mol.

As for TGGGTCACGTGCGTGG, the “relative binding free energy” value came out at 0.06 kcal/mol. On to TCTGTCACGTGGGAGG, for which the “relative binding free energy” value was 0.03 kcal/mol. The same measure for CGTGGCACGTGAGGGT: 0.09 kcal/mol; for CCGTGCACGTGGGGGT: -0.31 kcal/mol; for TTATTCACGTGGTTTT: 0.26 kcal/mol. Consider TGAGTCACGTGGACAT, for which the “relative binding free energy” value came out at 0.05 kcal/mol. ATAATCACGTGGGGTC: the “relative binding free energy” value was 0.07 kcal/mol. Under GAGGTCACGTGGGTGA stands 0.04 kcal/mol. Under AAGTGCACGTGGAGCG stands -0.17 kcal/mol; under AGTATCACGTGGGGTT, 0 kcal/mol; under CTGGGCACGTGCGGTA, -0.3 kcal/mol. Take TGTTTCACGTGCTAAG: the “relative binding free energy” value worked out at 0.23 kcal/mol. In the case of ATTTCCACGTGTGGTG, the “relative binding free energy” value came to 0.14 kcal/mol. The same measure for TATATCACGTGTACGG: 0.34 kcal/mol. Turning to TAGCGCACGTGTTGTG, the “relative binding free energy” value is -0.11 kcal/mol. Under ATCGGCACGTGTTAAG stands -0.01 kcal/mol; under TAACTCACGTGGGTAT, 0.12 kcal/mol. The same measure for TTTAACACGTGATATA: 0.08 kcal/mol. Take CAAGTCACGTGTGGTT: the “relative binding free energy” value amounted to 0.2 kcal/mol. The same measure for GGGGCCACGTGGCGGT: -0.12 kcal/mol; for GGACTCACGTGATGTT: 0.27 kcal/mol. The same measure for TCAAGCACGTGTCGGG: 0.09 kcal/mol; for TGCTTCACGTGATTTT: 0.33 kcal/mol. As for ATATACACGTGAATTT, the “relative binding free energy” value was 0.13 kcal/mol.

Consider GTAGTCACGTGGACTT, for which the “relative binding free energy” value turned out to be 0.25 kcal/mol.

GGTAGCACGTGCTTTG: the “relative binding free energy” value was -0.06 kcal/mol. Under TGGCACACGTGTGTAA stands 0.1 kcal/mol. Consider TATAACACGTGCGGGG, for which the “relative binding free energy” value is -0.12 kcal/mol.

On to TAATTCACGTGACGTG, for which the “relative binding free energy” value turned out to be 0.29 kcal/mol. The same measure for ATTTGCACGTGACTGG: 0.18 kcal/mol; for AGCATCACGTGGGGCG: 0 kcal/mol. The same measure for GGGGACACGTGTGTGG: 0.12 kcal/mol; for ATATACACGTGCGTGT: -0.11 kcal/mol. Turning to CTTTACACGTGTTTGT, the “relative binding free energy” value worked out at 0.03 kcal/mol. The same measure for TGACGCACGTGCTGGG: -0.15 kcal/mol. Consider TCGGTCACGTGCGGGG, for which the “relative binding free energy” value stood at 0.08 kcal/mol. The same measure for GGACACACGTGTGGAG: 0.22 kcal/mol. Consider TATCGCACGTGGGGGG, for which the “relative binding free energy” value was -0.19 kcal/mol.

Consider GTTGGCACGTGGCTAA, for which the “relative binding free energy” value is -0.12 kcal/mol. The same measure for TGCTACACGTGGTGGA: 0.09 kcal/mol. Under ATGTGCACGTGACCGG stands 0.14 kcal/mol. The same measure for AGTTACACGTGGTGGG: 0.18 kcal/mol; for GGTGGCACGTGAGTCG: 0.1 kcal/mol; for CGGATCACGTGGTATA: 0.23 kcal/mol.

Consider ATTGGCACGTGGGTAG, for which the “relative binding free energy” value is -0.19 kcal/mol. Under GTAAGCACGTGAGCGT stands 0.23 kcal/mol; under CATGTCACGTGTTAGG, 0.18 kcal/mol; under GTCTACACGTGTGTGG, 0.13 kcal/mol. As to TAGGGCACGTGAGGAC, the “relative binding free energy” value came out at 0.06 kcal/mol. Under ATCAGCACGTGTGGTG stands -0.11 kcal/mol. Regarding GTGTTCACGTGGCAAG, the “relative binding free energy” value worked out at 0.27 kcal/mol.

Regarding GGGCGCACGTGGAAGG, the “relative binding free energy” value was 0.05 kcal/mol. The same measure for AGCGTCACGTGGTACG: 0.1 kcal/mol.
